In PubChem BioAssay AID445 (National Center for Advancing Translational Sciences (NCATS), 2006):
Screen size: about 110,000 compounds; about 40 (0.04%) were called active. The shares of active, inactive and inconclusive entries below differ from those in the screen. Calls come from the whole dose curve; as a rule, active = well fitted curve in the direction sought with a large enough effect in the signal ratio (not every such curve was filed as active); inconclusive = small, poorly fitted or top-dose-only effect, or a change in a side signal; inactive = flat fitted curve, though single readings scatter; the % refers to the signal ratio. Potencies of inconclusive entries are doubtful fits and often do not repeat.

Assay: IkB Signaling;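 for IkBa stabilization activation: 0% = basal untreated cells and 100% = reference inhibitor full response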
Conditions: ABC-DLBCL IkBa-CBG/CBR dual luciferase ratio (green luciferase fused to IkBa over red control in OCI-Ly3 lymphoma cells), 4 h; IkBa stabilization activation: at 57.1 µM (top of the series), scaled: untreated 0%, proteasome inhibitor 100% unless noted
Procedure, shortened: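 Curves were fitted separately to fusion (green), unfused (red) and ratio luminescence, then classed by r2, magnitude and activity. Cells: OCI-Ly3, 4 h compound plus doxycycline at 37C; 10 uM MG-132 defined full response.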
Potency is the fitted concentration of half-maximal effect.

Structure (SMILES) | IkBa stabilization activation | Potency
O=C(O)CSCCc1ccccc1 | inactive: -0.0955% [at 11.4 µM, scaled: untreated 0%, proteasome inhibitor 100%] | –
CCC1CN(C(=O)N2CCC(C(=O)N3CCN(c4cc(C)ccc4C)CC3)CC2)c2ccccc2O1 (stereo not drawn) | inconclusive: 1.31% [signal inhibitor] | –
Cc1cc(F)ccc1NC(=O)CCSc1nc(-c2ccco2)cc(C(F)(F)F)n1 | inactive | –
COC(=O)COc1ccc(Oc2nc(NC(C)(C)C)nc(N(C)C)n2)nn1 | inactive | –
Cc1ccc(C(=O)NC2(C(F)(F)F)N=C(c3ccccc3)N(C3CCCCC3)C2=O)cc1 (stereo not drawn) | inconclusive: 1.27% [signal inhibitor] | –
CCn1c(CC2C(=O)N(C)c3ccc(Br)cc32)nc2ccccc2c1=O (stereo not drawn) | inactive | –
Cc1cccc(C(=O)N2CCc3cc(CNS(=O)(=O)c4cccs4)ccc32)c1 | inconclusive: 0.599% [signal inhibitor] | –
CCCCCn1c(=O)c2c(nc3n2CCN3c2ccc(Br)cc2)n(C)c1=O | inconclusive: 17.5% [signal inhibitor] | –
c1ccc(OCCSc2nnc3sc4ccccc4n23)cc1 | inconclusive: 16.3% [signal inhibitor] | –
N#Cc1ccccc1-c1ccc2ncnc(NCc3cccs3)c2c1 | inactive: 2.44% [at 11.4 µM, scaled: untreated 0%, proteasome inhibitor 100%] | –
CCC(Sc1nnc2c3ccccc3n(C)c2n1)C(=O)Nc1nnc(C(C)C)s1 (stereo not drawn) | inactive | –
O=C(O)c1cccc(COCC(F)(F)C(F)F)c1 | inactive | –
CN(C)CC(=O)c1ccc(-c2ccccc2)cc1 | inactive | –
O=C(c1ccco1)N1CCCC(c2nc(-c3ccc(S(=O)(=O)NCc4ccccc4)cc3)no2)C1 (stereo not drawn) | inconclusive: -6.66% [signal inhibitor] | –
O=C(CSc1nc2c(cnn2-c2ccc(F)cc2)c(=O)[nH]1)Nc1ccccc1C(F)(F)F | inconclusive: 7.52% [signal inhibitor] | –
Cn1c(=O)cc(OCCCC(=O)NCc2ccc3c(c2)OCO3)c2ccccc21 | inconclusive: 10.6% [signal activator] | –
O=C(c1cccc(F)c1)N1CCC2(CC1)CCN(c1ccccn1)CC2 | inactive: 0.76% [at 11.4 µM, scaled: untreated 0%, proteasome inhibitor 100%] | –
COc1cccc(Cn2c(=O)cnc3cnc(N4CCOCC4)nc32)c1 | inactive: 2.55% [at 11.4 µM, scaled: untreated 0%, proteasome inhibitor 100%] | –
COc1cccc(CNC(=O)c2cc3ccc4cccnc4c3[nH]2)c1 | inconclusive: 5.55% [signal inhibitor] | –
COc1ccccc1N1CCN(C(=O)c2cc3c(=O)oc4ccccc4c3s2)CC1 | inconclusive: 12% [signal inhibitor] | –
CCCN1C(=O)C2(c3ccccc31)c1c(oc3ccccc3c1=O)C(=O)N2CCCOC(C)C (stereo not drawn) | inactive | –
O=C(O)c1ccc(C2Nc3ccccc3-c3nnc(SCc4ccc(Cl)cc4)nc3O2)cc1 (stereo not drawn) | inconclusive: 12.3% [signal inhibitor] | –

Structure (SMILES) | IkBa stabilization activation | Potency
COc1cc(OC)c(NC(=O)N2CC=C(c3c[nH]c4ccccc34)CC2)cc1Cl | inconclusive: 5.95% [signal inhibitor] | –
COc1cccc(C(=O)Nc2ccc(C(=O)OCc3cc(=O)n4nc(C5CC5)sc4n3)cc2)c1 | inactive | –
COc1ccccc1OCc1nc(-c2cccc(C)c2)no1 | – | inconclusive: 31.6 µM [signal inhibitor, partial curve]
CC1CCN(C(=O)C(C)Sc2nc(-c3ccccc3)cc(C(F)(F)F)n2)CC1 (stereo not drawn) | inconclusive: -0.941% [signal inhibitor] | –
O=C(Cn1c(=O)n2nc(-c3cccc(F)c3)nc2c2ccccc21)N1CCN(c2ccccc2F)CC1 | inactive | –
CC(Sc1nc2c([nH]c3ccccc32)c(=O)n1-c1ccccc1)c1ccccc1 (stereo not drawn) | inconclusive: 2.6% [signal inhibitor] | –
CCOC(=O)c1cc2cc(-c3c(C(=O)OCC)oc4cc(O)cc(O)c4c3=O)ccc2o1 | inconclusive: -5.83% [signal inhibitor] | –
CCOC(=O)C1CCN(C(=O)c2ccc3c(c2)N=C(CC)c2cc(C)ccc2S3)CC1 | – | inconclusive: 15.8 µM [signal inhibitor]
Cc1ccc(-c2nnc(Nc3ccccc3)o2)cc1 | – | inconclusive: 3.98 µM [signal inhibitor, full curve]
Cc1ccc(-c2cc(C(=O)NC3=NCCS3)c3cc(Br)ccc3n2)o1 | inconclusive: 5.18% [signal inhibitor] | –
Cc1cccc(N2CCN(C(=O)c3cc4ccc5cccnc5c4[nH]3)CC2C)c1 (stereo not drawn) | inactive | –
CN1CCN(C(CNC(=O)c2c(F)cccc2F)c2ccc3c(c2)OCO3)CC1 (stereo not drawn) | inactive | –
O=c1c2ccccc2n(Cc2cccc(Cl)c2)c(=O)n1Cc1ccccc1 | inconclusive: 2.71% [signal inhibitor] | –
COCCCNc1nc(NCc2ccc(C)cc2)c2cnn(C)c2n1 | inconclusive: 3.24% [signal inhibitor] | –
COc1cccc2c1cc1c(=O)n(CC(=O)N3CCC(C)CC3)nc(C)n12 | inconclusive: 4.15% [signal inhibitor] | –
CCOc1ccc2[nH]c(=O)c(CN(Cc3nnnn3CCc3ccccc3)CC3CCCO3)cc2c1 (stereo not drawn) | inconclusive: 0.803% [signal inhibitor] | –
O=c1oc2ccccc2cc1-c1nc(-c2cccs2)no1 | – | inconclusive: 31.6 µM [signal inhibitor, partial curve]
CCOc1ccc(-c2nc(C#N)c(N3CCCCCC3)o2)cc1 | inactive | –
CCC(=O)Nc1sc2c(c1C(=O)Nc1ccc(Br)cc1)CCCCC2 | inconclusive: 15.1% [signal inhibitor] | –
COc1ccccc1-c1nc(SCC(=O)c2ccc(Cl)cc2)n[nH]1 | inconclusive: 12.2% [signal inhibitor] | –
Cc1cc(C)n(-c2nc3ccccc3nc2Nc2ccc(CC(=O)O)cc2)n1 | – | inconclusive: 5.01 µM [signal inhibitor, partial curve]
